According to the RNAGym collection of RNA variant scans (doi:10.7554/elife.90254):
Read counts are not given, so values of variants with three or more changes are uncertain.

B1: LINE1-mini (parent)
chain: GGCAGAGCUCAACACAGCGUGGCAAAGUGGCUGUGGCUAGACUGCC

Variants of: B1
Test: self-cleavage, relative activity (ratio to wild type); higher = more cleavage; in vitro, sequencing; the parent is a self-cleaving ribozyme

| Variant | self-cleavage |
| --- | --- |
| U9C C10U G17A U20A C31A | 0.01 |
| C8U C13A A25G | 0.13 |
| C8U U34A C42A | 0.46 |
| C8U A12U G21U | 0.35 |
| U9A A11U C13G U20C G22C G44A | 0.02 |
| C8U C23G G40U | 0.05 |
| U9A C15G G21A C23A U32G U34G A41U | 0.03 |
| U9C A11U C13U G21U C45A | 0 |
| C8U C37A U38A | 0.11 |
| U9C C10A G36A A39G | 0.03 |
| U9C A24G A39C | 0 |
| U9A C10A G35A | 0.03 |
| U9C A25G C37G C42U C45U | 0.02 |
| C8U C13A U28A C37U C45U | 0.34 |
| C8U G29A G33A | 0.07 |
| U9A A12C G17A G19U A26U U28A | 0.01 |
| U9A A12C C23G C42A C45A | 0 |
| U9C A24G G33U | 0 |
| U9C A26G U43C | 0.04 |
| C8U C23U C31U | 0.38 |
| U9A G21C A26G | 0.04 |
| U9A U34C G35U | 0.03 |
| U9A A12U U34C | 0.04 |
| C8U G19C C42U | 0.02 |

| Variant | self-cleavage |
| --- | --- |
| U9A A39U G44U | 0.16 |
| C8U C18A A24U C42A | 0.13 |
| U9C A25U A39U C42U | 0.03 |
| U9A A12C G29A | 0 |
| C8U C10A G27U C37U | 0.02 |
| C8U C10A G44U | 0.04 |
| U9C A11U G33U C42G | 0.01 |
| C8U G27U G35U | 0.02 |
| U9C C10U A24U G36A | 0.05 |
| U9A A12G C15G C31A G33C A39C C45G | 0.02 |
| U9C A14U C15G U28G G36A | 0.02 |
| C8U G19A G29U G33A | 0.62 |
| C8U G36U C42U | 0.09 |
| C8U A12G C23U C42U U43A G44C | 0.02 |
| C8U C18A G40U | 0.1 |
| U9A C18A G27C G29C C37A | 0.18 |
| C8U A16G U32G G33A C46G | 0.05 |
| C8U A14U U20A A24C | 0.04 |
| U9A C31U C42U | 0.01 |
| C8U C10G G22C | 0.01 |
| U9A A12U G35C | 0.03 |
| U9C C13U A14G G27A | 0.02 |
| C8U G17A U28A G36A | 0.16 |
| C8U G19A G36A | 0.66 |

| Variant | self-cleavage |
| --- | --- |
| C8U C10G G19C G44A | 0.02 |
| C8U G35C A39U | 0.02 |
| U9A G30U U38A | 0.19 |
| C8U G40C G44C C45A | 0.01 |
| C8U C42A C45U | 0.01 |
| U9A G30U G44A | 0.07 |
| C8U G22C G27U | 0.26 |
| C8U U9G A16G G19A G29C | 0.01 |
| U9C C13U A39C | 0.01 |
| C8U G22A G36U A41C C46U | 0.05 |
| U9C C10G C13A | 0.02 |
| C8U A25U U28G U32A A39C | 0.13 |
| U9A G29A C46A | 0.17 |
| U9A C13G A24U G30A G35A | 0.04 |
| U9A A11U C13A G29U A39U C42G | 0.02 |
| U9A G33C U34A | 0.04 |
| C8U C10A C46U | 0.07 |
| U9A A11C G27C | 0.05 |
| C8U G35C C46U | 0.34 |
| U9C A25U G27C G40C U43G C46G | 0.01 |
| C8U A16C A26U | 0.38 |
| U9A A16G A25G G36C | 0.01 |
| U9A G35U A39C G44U | 0.01 |
| C8U C31U C42A | 0.04 |

| Variant | self-cleavage |
| --- | --- |
| U9A G21A G30A C45G | 0.24 |
| U9A G17C G35C | 0.08 |
| C8U C31A U34C G44C | 0.1 |
| C8U G22A C23G C42U | 0.19 |
| C8U A14U G36C | 0.05 |
| C8U C18G U34C | 0.06 |
| C8U C15A A16U C42G G44A | 0.05 |
| U9A A16G G44U | 0.03 |
| U9A G19U A24U | 0.04 |
| C8U U20C C23A A39C | 0.01 |
| U9C A11U C46U | 0 |
| U9C A12G A16G G17U C31U | 0.01 |
| C8U C18U U34G | 0.08 |
| C8U C18G A25G U32A | 0.02 |
| U9A C10U G35A C37G C45U | 0.1 |
| C8U A26U C45G | 0.2 |
| U9A C13U A16G G36A C37A A41U | 0.01 |
| C8U C13U C15A G33U A39C | 0.07 |
| U9C A12C C15G | 0 |
| C8U A24C U43A C46A | 0.04 |
| C8U C15U G21A C31A G44A | 0.3 |
| C8U C15A A24C G30A C37A | 0.01 |
| C8U A14C G22C G29A | 0.07 |
| U9A G27A G44A | 0.33 |

| Variant | self-cleavage |
| --- | --- |
| C8U C10A U38G | 0.03 |
| C8U A11U G22A G30U G36A | 0.02 |
| U9A A12G C13A C42U C46A | 0.04 |
| C8U C23U G35U G44U | 0.06 |
| U9A G21U G44A | 0.16 |
| U9C C13G C23G | 0.03 |
| C8U G40C C46G | 0.16 |
| U9C C10A A24U | 0.02 |
| C8U C15U C18A C31A U38G G40U | 0.06 |
| U9A A24C A41U C42G | 0.16 |
| U9A C10U A14C G36U G40C A41C C42A | 0.02 |
| C8U G33U U34A A41U G44U C46U | 0.14 |
| C8U A25G U28A | 0.02 |
| U9A G22C C31U | 0.02 |
| C8U A14U G21U A25G C31U | 0.18 |
| U9A G21A G35A | 0.06 |
| U9C A26G C45G | 0.02 |
| U9A G17A A26U U28C G30A | 0.25 |
| C8U G17U C18G A26U C31U U38G G40U | 0.02 |
| U9A G21U G22C U43A | 0.11 |
| C8U G19U G35U C37A | 0.05 |
| C8U C15A U28G | 0.44 |
| C8U G36A A41G | 0.66 |
| U9C A12U G29A | 0.01 |

| Variant | self-cleavage |
| --- | --- |
| C8U C10G G44U | 0.03 |
| U9A C15A G33A | 0.15 |
| C8U G19U G21C G36U C42U | 0.03 |
| C8U C18U C23G A39C | 0.31 |
| U9A G27C G40A C42U G44A C45A | 0.03 |
| C8U G17C C31A G33C | 0.06 |
| C8U C15A G17C A26G G27U G30C | 0.02 |
| U9A G22U G35A | 0.19 |
| U9A C13A U34C | 0.67 |
| C8U A14G G19C G22C U28G G35U | 0.05 |
| U9C A12C U34G C42A | 0.02 |
| C8U G17A G33U U38C | 0.03 |
| U9A A11C C13G G17C U34A | 0.01 |
| U9C A16C G17A U20A G30U | 0.02 |
| U9C A11C G21U C31U | 0.03 |
| U9A C10U G44U | 0.11 |
| U9C A12U G21A | 0.03 |
| U9C A11U G35U U38C | 0.02 |
| C8U C13A A41C | 0.21 |
| C8U C13A A41G | 0.12 |
| C8U G19U G22A A24G A26U G27A G40U | 0.05 |
| U9A A14C G17A C46A | 0.09 |
| U9C A12U C15G U38C | 0.01 |
| U9C A16U G17C G22C G27A U32G G44U | 0 |

| Variant | self-cleavage |
| --- | --- |
| C8U U9G C10G G19A | 0.04 |
| C8U G17C G21C | 0.32 |
| C8U C15U G21U | 0.25 |
| C8U C10U U28G | 0.01 |
| U9A A12U U20G | 0.02 |
| U9C A11C C13U A25C U28G G40U C46U | 0 |
| C8U C15U A16C U32A | 0.01 |
| C8U A26C U32C | 0.04 |
| U9A C10U C13U | 0.12 |
| C8U C15A G17A U43C | 0.27 |
| U9C A11U A25C C45A | 0.04 |
| C8U U20G U28A | 0.13 |
| U9A G29C G30U A41U | 0.04 |
| U9C C13G G22A U32A G35A | 0.02 |
| U9C C10A U38C | 0.01 |
| U9A A25U C42A | 0.4 |
| C8U C18G G22C A26C | 0.28 |
| U9C C10A U34C A41G | 0 |
| U9C A26U C45U C46G | 0.01 |
| U9A C13U C31U | 0.03 |
| U9C C10U A11G | 0.03 |
| C8U A11U G30C G35A C46G | 0.01 |
| C8U U20C G33A A41C C46G | 0.12 |
